Data reported in the supplement of paper PMC3334620.
The full ranking holds about 33,000 sequences; the median of “E-score (-0.5 to 0.5)” is about -0.041, and the highest 2% start at about 0.37. The list shows a part of the results.

biological target: T1, Ecm22 (UniProt Q05958); assay: PBM E-score (8-mer binding enrichment) (E-score (-0.5 to 0.5)); higher = stronger / more preferred TF binding; most listed sequences are background and not binding sites; conditions: protein concentration: 200 nM; construct: GST-full length
T1 sequence: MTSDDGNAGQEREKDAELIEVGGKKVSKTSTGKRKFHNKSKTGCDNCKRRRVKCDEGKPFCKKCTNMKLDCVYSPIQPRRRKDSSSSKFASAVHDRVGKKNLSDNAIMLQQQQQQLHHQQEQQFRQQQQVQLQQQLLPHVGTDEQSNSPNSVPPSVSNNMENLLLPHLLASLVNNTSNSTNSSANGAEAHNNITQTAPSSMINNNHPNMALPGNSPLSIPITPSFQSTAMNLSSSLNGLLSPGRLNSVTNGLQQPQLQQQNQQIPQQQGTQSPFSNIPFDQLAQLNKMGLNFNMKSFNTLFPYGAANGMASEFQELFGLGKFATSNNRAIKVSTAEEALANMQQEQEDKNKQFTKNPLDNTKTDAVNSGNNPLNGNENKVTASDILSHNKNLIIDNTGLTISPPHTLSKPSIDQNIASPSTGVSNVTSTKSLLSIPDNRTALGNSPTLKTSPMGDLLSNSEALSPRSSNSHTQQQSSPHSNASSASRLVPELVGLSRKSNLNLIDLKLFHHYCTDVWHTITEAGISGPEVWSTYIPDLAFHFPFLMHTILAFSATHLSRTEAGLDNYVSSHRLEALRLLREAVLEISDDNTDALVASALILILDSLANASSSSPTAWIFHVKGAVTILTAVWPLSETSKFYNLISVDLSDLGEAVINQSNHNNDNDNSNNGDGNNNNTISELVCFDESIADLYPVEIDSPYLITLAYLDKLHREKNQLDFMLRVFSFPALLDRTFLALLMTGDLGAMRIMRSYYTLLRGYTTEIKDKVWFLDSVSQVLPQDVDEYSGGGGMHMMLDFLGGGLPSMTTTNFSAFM
Method in brief: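 Universal all-10-mer Agilent arrays, double-stranded by primer extension on fresh or once-stripped slides, were probed with about 100-200 nM GST-tagged yeast transcription factors made by PURExpress. Fluorescent anti-GST detected bound protein, and masliner normalised the scans. E-scores from the Universal PBM Analysis Suite were given to each ungapped eight-base word pooled with its reverse complement.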

| Sequence | PBM E-score |
| --- | --- |
| AGACTTTG | -0.0931 |
| ACTGCTAG | -0.236 |
| CCAAGGAA | -0.068 |
| AATTTTGA | 0.0335 |
| GATCAGTA | 0.183 |
| GATAAAAA | -0.187 |
| CCCGTCGA | -0.0281 |
| AAAGTGTC | 0.0387 |
| ACTATGGA | -0.0773 |
| AGCCCGTA | 0.325 |
| ACGAAGAA | 0.355 |
| ATTCACAG | -0.0952 |
| ATGAGAGG | -0.151 |
| AGAGCTTG | -0.114 |
| GTACGATA | 0.456 |
| GCCACTCC | 0.109 |
| AACGTTTA | 0.319 |
| ACGCCGGA | 0.1 |
| ACGGAATA | 0.101 |
| CCCGTCGC | 0.0859 |
| AAACACCC | -0.0996 |
| CAAAATTA | 0.0914 |
| CCCCAAGG | -0.303 |
| CTGCTTCA | -0.29 |

| Sequence | PBM E-score |
| --- | --- |
| AAACATGT | 0.102 |
| CGTCATAA | 0.0154 |
| CCAACTGA | -0.0501 |
| AAATCCAC | -0.0271 |
| GTTGCACA | -0.0354 |
| CACCACTA | 0.0492 |
| GTAGATAC | 0.0534 |
| CAGGACCC | -0.245 |
| CGCAGTGA | 0.0367 |
| ATTGTAAC | 0.0017 |
| GCAGGTCC | 0.0428 |
| CCAGGACG | -0.15 |
| ACATGACG | -0.0309 |
| CCACGAAC | 0.201 |
| GAATCTAC | -0.0696 |
| CTTAGTTC | 0.0311 |
| ACCGTTCT | 0.135 |
| AAGACGGC | -0.3 |
| GAGTGCAA | 0.151 |
| TCAAAGGA | -0.232 |
| ACCACAGT | -0.0614 |
| CGCAATGC | -0.027 |
| ATGTTATG | -0.0518 |
| AAGCTGAG | -0.289 |

| Sequence | PBM E-score |
| --- | --- |
| CCAGACTC | -0.0799 |
| TATAGTCA | 0.134 |
| GTATGGTA | 0.178 |
| CTAAGAGA | -0.206 |
| CCCCTAGG | -0.307 |
| CGAGAACC | 0.251 |
| GACAGTAC | 0.0613 |
| GAGAGCAC | -0.00667 |
| AGATCGCG | 0.191 |
| GCAGAAAC | 0.0788 |
| AAGTTACG | 0.324 |
| ACTAAAAG | 0.0157 |
| GACACGCA | 0.0833 |
| GCTAGATA | -0.0347 |
| ACACGCGC | -0.0471 |
| CTAAGGCA | -0.387 |
| AATCGTAG | 0.211 |
| CGTCCCAC | -0.152 |
| GAGTTGCA | -0.258 |
| CTCGAATA | 0.0952 |
| ATGCACCG | -0.0745 |
| AAAGAATT | -0.202 |
| CCGCACAA | 0.102 |
| GTTGACAA | 0.082 |

| Sequence | PBM E-score |
| --- | --- |
| CTGCCCAA | -0.263 |
| CACAGGTG | -0.202 |
| AACTACCC | -0.127 |
| ATACGTGC | 0.291 |
| AAGGTAGA | -0.16 |
| AGATTTAA | -0.0578 |
| CAGTGACC | -0.219 |
| CCTGCAAA | -0.095 |
| GCTACTGA | -0.00538 |
| GAAAGAAA | 0.14 |
| AACGGTAA | 0.267 |
| ACTCCCGA | 0.082 |
| GTAGGGTA | -0.0253 |
| TACAAGAA | 0.0978 |
| GTAAGCAC | -0.0903 |
| CCGGGCTA | -0.264 |
| CTAGTCAC | -0.0203 |
| AGTCTACG | 0.104 |
| CAGGGTAG | -0.148 |
| AGCAACAC | -0.00721 |
| GGTCCACC | -0.214 |
| AGCTATCA | -0.0581 |
